Measured values reported in patent publication US11618753B2 (priority 2018, dated 2023).

test system: MLKL phosphorylation, HT29-L23 human colorectal adenocarcinoma cells; assay: cells; details: read-out: pMLKL HCS Cell Assay (IC50, uM)

| Compound | IC50 [µM] |
| --- | --- |
| COc1ncc(-c2cc(CN3CCC(F)(F)CC3)c3c(N)ncnn23)cc1C(=O)N[C@@H]1CN(C(=O)OC2(C3CC3)CC2)C[C@@H]1F [Example 1521, [1,1′-bi(cyclopropane)]-1-yl (3R,4S)-3-(5-{4-amino-5-[(4,4-difluoropiperidin-1-yl)methyl]pyrrolo[2,1-f][1,2,4]triazin-7-yl}-2-methoxypyridine-3-amido)-4-fluoropyrrolidine-1-carboxylate] | 0.0032 |
| COc1ncc(-c2cc(CN3CCC(F)(F)CC3)c3c(N)ncnn23)cc1C(=O)N[C@@H]1CN(C(=O)OCC(F)(F)C(F)(F)F)C[C@@H]1F [Example 1522, 2,2,3,3,3-pentafluoropropyl (3R,4S)-3-(5-{4-amino-5-[(4,4-difluoropiperidin-1-yl)methyl]pyrrolo[2,1-f][1,2,4]triazin-7-yl}-2-methoxypyridine-3-amido)-4-fluoropyrrolidine-1-carboxylate] | 0.0038 |
| COc1ncc(-c2cc(CN3CCC(F)(F)CC3)c3c(N)ncnn23)cc1C(=O)N[C@@H]1CN(C(=O)OCC2CC2(F)F)C[C@@H]1F (stereo partly drawn) [Example 1525, (2,2-difluorocyclopropyl)methyl (3R,4S)-3-(5-{4-amino-5-[(4,4-difluoropiperidin-1-yl)methyl]pyrrolo[2,1-f][1,2,4]triazin-7-yl}-2-methoxypyridine-3-amido)-4-fluoropyrrolidine-1-carboxylate] | 0.0026 |
| COc1ncc(-c2cc(CN3CCC(F)(F)CC3)c3c(N)ncnn23)cc1C(=O)N[C@@H]1CN(C(=O)OC(C(F)(F)F)C(F)(F)F)C[C@@H]1F [Example 1526, 1,1,1,3,3,3-hexafluoropropan-2-yl (3R,4S)-3-(5-{4-amino-5-[(4,4-difluoropiperidin-1-yl)methyl]pyrrolo[2,1-f][1,2,4]triazin-7-yl}-2-methoxypyridine-3-amido)-4-fluoropyrrolidine-1-carboxylate] | 0.0068 |
| COc1ncc(-c2cc(CN3CCC(F)(F)CC3)c3c(N)ncnn23)cc1C(=O)N[C@@H]1CN(C(=O)OCC(F)(F)C(F)C(F)(F)F)C[C@@H]1F (stereo partly drawn) [Example 1528, 2,2,3,4,4,4-hexafluorobutyl (3R,4S)-3-(5-{4-amino-5-[(4,4-difluoropiperidin-1-yl)methyl]pyrrolo[2,1-f][1,2,4]triazin-7-yl}-2-methoxypyridine-3-amido)-4-fluoropyrrolidine-1-carboxylate] | 0.078 |
| COc1ncc(-c2cc(CN3CCC(F)(F)CC3)c3c(N)ncnn23)cc1C(=O)N[C@@H]1CN(C(=O)OC(C(C)(C)C)C(F)(F)F)C[C@@H]1F (stereo partly drawn) [Example 1530, 1,1,1-trifluoro-3,3-dimethylbutan-2-yl (3R,4S)-3-(5-{4-amino-5-[(4,4-difluoropiperidin-1-yl)methyl]pyrrolo[2,1-f][1,2,4]triazin-7-yl}-2-methoxypyridine-3-amido)-4-fluoropyrrolidine-1-carboxylate] | 0.044 |
| COc1ncc(-c2cc(CN3CCC(F)(F)CC3)c3c(N)ncnn23)cc1C(=O)N[C@@H]1CN(C(=O)OC2CC(F)(F)C2(F)F)C[C@@H]1F (stereo partly drawn) [Example 1532, 2,2,3,3-tetrafluorocyclobutyl (3R,4S)-3-(5-{4-amino-5-[(4,4-difluoropiperidin-1-yl)methyl]pyrrolo[2,1-f][1,2,4]triazin-7-yl}-2-methoxypyridine-3-amido)-4-fluoropyrrolidine-1-carboxylate] | 0.0021 |
| COc1ncc(-c2cc(CN3CCC(F)(F)CC3)c3c(N)ncnn23)cc1C(=O)N[C@@H]1CN(C(=O)OCC(C)C(F)(F)F)C[C@@H]1F (stereo partly drawn) [Example 1533, 3,3,3-trifluoro-2-methylpropyl (3R,4S)-3-(5-{4-amino-5-[(4,4-difluoropiperidin-1-yl)methyl]pyrrolo[2,1-f][1,2,4]triazin-7-yl}-2-methoxypyridine-3-amido)-4-fluoropyrrolidine-1-carboxylate] | 0.0019 |
| CCCOC(=O)N1C[C@H](F)[C@H](NC(=O)c2cc(-c3cc(CN4CCC(F)(F)CC4)c4c(N)ncnn34)cnc2OC)C1 [Example 1535, propyl (3R,4S)-3-(5-{4-amino-5-[(4,4-difluoropiperidin-1-yl)methyl]pyrrolo[2,1-f][1,2,4]triazin-7-yl}-2-methoxypyridine-3-amido)-4-fluoropyrrolidine-1-carboxylate] | 0.0015 |
| COc1ncc(-c2cc(CN3CCC(F)(F)CC3)c3c(N)ncnn23)cc1C(=O)NC1CN(C(=O)OC2CC(F)(F)C2(F)F)C[C@@H]1F (stereo partly drawn) [Example 1537, 2,2,3,3-tetrafluorocyclobutyl (3R,4S)-3-(5-{4-amino-5-[(4,4-difluoropiperidin-1-yl)methyl]pyrrolo[2,1-f][1,2,4]triazin-7-yl}-2-methoxypyridine-3-amido)-4-fluoropyrrolidine-1-carboxylate] | 0.129 |
| COc1ncc(-c2cc(CN3CCC(F)(F)CC3)c3c(N)ncnn23)cc1C(=O)NC1CN(C(=O)OC(C(C)(C)C)C(F)(F)F)C[C@@H]1F (stereo partly drawn) [Example 1539, 1,1,1-trifluoro-3,3-dimethylbutan-2-yl (3R,4S)-3-(5-{4-amino-5-[(4,4-difluoropiperidin-1-yl)methyl]pyrrolo[2,1-f][1,2,4]triazin-7-yl}-2-methoxypyridine-3-amido)-4-fluoropyrrolidine-1-carboxylate] | 0.446 |
| COc1ncc(-c2cc(CN3CCC(F)(F)CC3)c3c(N)ncnn23)cc1C(=O)N[C@@H]1CN(S(=O)(=O)CCC(F)(F)F)C[C@@H]1F [Example 1541, 5-{4-amino-5-[(4,4-difluoropiperidin-1-yl)methyl]pyrrolo[2,1-f][1,2,4]triazin-7-yl}-N-[(3R,4S)-4-fluoro-1-(3,3,3-trifluoropropanesulfonyl)pyrrolidin-3-yl]-2-methoxypyridine-3-carboxamide] | 0.00083 |
| COc1ncc(-c2cc(CN3CCC(F)(F)CC3)c3c(N)ncnn23)cc1C(=O)N[C@@H]1CN(S(=O)(=O)CC(F)(F)F)C[C@@H]1F [Example 1542, 5-{4-amino-5-[(4,4-difluoropiperidin-1-yl)methyl]pyrrolo[2,1-f][1,2,4]triazin-7-yl}-N-[(3R,4S)-4-fluoro-1-(2,2,2-trifluoroethanesulfonyl)pyrrolidin-3-yl]-2-methoxypyridine-3-carboxamide] | 0.0025 |
| COc1ncc(-c2cc(CN3CCC(F)(F)CC3)c3c(N)ncnn23)cc1C(=O)NC1CN(S(=O)(=O)C(C)C(F)(F)F)C[C@@H]1F (stereo partly drawn) [Example 1543, 5-{4-amino-5-[(4,4-difluoropiperidin-1-yl)methyl]pyrrolo[2,1-f][1,2,4]triazin-7-yl}-N-[(3R,4S)-4-fluoro-1-(1,1,1-trifluoropropane-2-sulfonyl)pyrrolidin-3-yl]-2-methoxypyridine-3-carboxamide] | 0.0032 |
| COc1ncc(-c2cc(C(F)(F)F)c3c(N)ncnn23)cc1C(=O)N[C@@H]1CN(C(=O)C2CC(O)(C(F)(F)F)C2)C[C@@H]1F (stereo partly drawn) [Example 1547, 5-(4-Amino-5-(trifluoromethyl)pyrrolo[2,1-f][1,2,4]triazin-7-yl)-N-((3R,4S)-4-fluoro-1-(3-hydroxy-3-(trifluoromethyl)cyclobutane-1-carbonyl)pyrrolidin-3-yl)-2-methoxynicotinamide] | 0.034 |
| [2H]C([2H])([2H])Oc1ncc(-c2cc(CC3CC(F)(F)C3)c3c(N)ncnn23)cc1C(=O)N[C@@H]1CN(C(=O)OCC(F)(F)F)C[C@@H]1F [Example 1548, 2,2,2-Trifluoroethyl (3R,4S)-3-(5-(4-amino-5-((3,3-difluorocyclobutyl)methyl)pyrrolo[2,1-f][1,2,4]triazin-7-yl)-2-(methoxy-d3)nicotinamido)-4-fluoropyrrolidine-1-carboxylate] | 0.0006 |
| COc1ncc(-c2cc(CN3CCCC3)c3c(N)ncnn23)cc1C(=O)N[C@@H]1CN(C(=O)C2CC(F)(F)C2)C[C@@H]1F [Example 1549, 5-(4-amino-5-(pyrrolidin-1-ylmethyl)pyrrolo[2,1-f][1,2,4]triazin-7-yl)-N-((3R,4S)-1-(3,3-difluorocyclobutane-1-carbonyl)-4-fluoropyrrolidin-3-yl)-2-methoxynicotinamide] | 0.0012 |
| COc1ncc(-c2cc(CN3CC4(CCC4)C3)c3c(N)ncnn23)cc1C(=O)N[C@@H]1CN(C(=O)[C@@](C)(O)C(F)(F)F)C[C@@H]1F [Example 1550, 5-[4-amino-5-({2-azaspiro[3,3]heptan-2-yl}methyl)pyrrolo[2,1-f][1,2,4]triazin-7-yl]-N-[(3R,4S)-4-fluoro-1-[(2R)-3,3,3-trifluoro-2-hydroxy-2-methylpropanoyl]pyrrolidin-3-yl]-2-methoxypyridine-3-carboxamide] | 0.0029 |
| COc1ncc(-c2cc(CN3CCC(C(F)(F)F)C3)c3c(N)ncnn23)cc1C(=O)N[C@@H]1CN(C(=O)[C@@](C)(O)C(F)(F)F)C[C@@H]1F (stereo partly drawn) [Example 1551, 5-(4-amino-5-{[3-(trifluoromethyl)pyrrolidin-1-yl]methyl}pyrrolo[2,1-f][1,2,4]triazin-7-yl)-N-[(3R,4S)-4-fluoro-1-[(2R)-3,3,3-trifluoro-2-hydroxy-2-methylpropanoyl]pyrrolidin-3-yl]-2-methoxypyridine-3-carboxamide] | 0.0012 |
| COc1ncc(-c2cc(CN3CC(C(F)(F)F)C3)c3c(N)ncnn23)cc1C(=O)N[C@@H]1CN(C(=O)C2CC(F)(F)C2)C[C@@H]1F [Example 1552, 5-(4-amino-5-{[3-(trifluoromethyl)azetidin-1-yl]methyl}pyrrolo[2,1-f][1,2,4]triazin-7-yl)-N-[(3R,4S)-1-(3,3-difluorocyclobutanecarbonyl)-4-fluoropyrrolidin-3-yl]-2-methoxypyridine-3-carboxamide] | 0.0097 |
| COc1ncc(-c2cc(CN3CCC(F)(F)CC3)c3c(N)ncnn23)cc1C(=O)N[C@@H]1CN(C(=O)OCC(F)(F)F)C[C@@H]1F [Example 1553, 2,2,2-trifluoroethyl (3R,4S)-3-(5-{4-amino-5-[(4,4-difluoropiperidin-1-yl)methyl]pyrrolo[2,1-f][1,2,4]triazin-7-yl}-2-methoxypyridine-3-amido)-4-fluoropyrrolidine-1-carboxylate] | 0.0018 |
| COc1ncc(-c2cc(CN3CCC3)c3c(N)ncnn23)cc1C(=O)N[C@@H]1CN(C(=O)[C@@](C)(O)C(F)(F)F)C[C@@H]1F [Example 1554, 5-{4-amino-5-[(azetidin-1-yl)methyl]pyrrolo[2,1-f][1,2,4]triazin-7-yl}-N-[(3R,4S)-4-fluoro-1-[(2R)-3,3,3-trifluoro-2-hydroxy-2-methylpropanoyl]pyrrolidin-3-yl]-2-methoxypyridine-3-carboxamide] | 0.0014 |
